Test results reported in the RNAGym collection of RNA variant scans (doi:10.1093/nar/gkz1192).
Read counts are not given, so values of variants with three or more changes are uncertain.

B1: CPEB3 Ribozyme (parent)
chain: UAACAGGGGGCCACAGCAGAAGCGUUCACGUCGCAGCCCCUGUCAGAUUCUGGUGAAUCUGCGAAUUCUGCUGUAUAUCUC

Variants of: B1
Assay: self-cleavage, relative activity (ratio to wild type); higher = more cleavage; in vitro, sequencing
Method in brief: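 CPEB3 self-cleaving ribozyme mutant libraries were made by rounds of error-prone PCR, barcoded, and transcribed in vitro with T7 RNA polymerase for 5 hours at 37°C. Cleavage occurred during transcription and a 15 min DNase I step before EDTA stop. RNAs were reverse transcribed with template switching and Illumina-sequenced, with DNA sequencing mapping barcodes to variants. Relative activity is the variant's cleaved/total read fraction divided by wild type's (minimum 5 reads), averaged across three batches.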

Variant	self-cleavage
A3G G16A A35G U48C U76A U78C	0.41
A3G U26C U58A	0.54
A3U A15C U48C U58A U67C	0.24
A3G G22A U25C C62U U74A	0.37
A3G G10A A21G A47G	0.44
A3G U26A C50U U76C	0.65
A3U A15G U41A U51C G52A U58C U78C	0.24
A3G U43C U80C	0.59
A3U A13G A18G U31C	0.37
A3U A20G A57G U58C	0.28
A3G U60C A64U C71U U78C	0.44
A3G U25C G36A U41A A65G U78C U80C	0.06
A3G G10A A21G U25C A28U U58C U69A	0.22
A3G U25C U74A	0.64
A3G U41G U66C	0.23
A3G G16U A28G A45U A65G C71G	0.08
A3G U25C U67C U72C	0.06
A3G U26A G30A U31A U48C A56G A64G	0.08
A3U A18G U41C U66C	0.21
A3U A15G A21G U41A U43C	0.12
A3G U43C U54C U66A U78A	0.15
A3G U26A U43A U78C	0.17
A3G U31C A45C G63C U67C	0.1
A3G G9U C11U A18C U78C	0.06

Variant	self-cleavage
A3G U48C U67G	0.26
A3G U26C G33A	0.42
A3G U25C C38A U41G A57G	0.08
A3G U49A U51C U54C	0.71
A3G G10A A18U G52C U72A A75U A77G	0.04
A3G U25C U41A	0.49
A3G G33C G52U	0.36
A3G U31A A45G U51A U54A G61A	0.24
A3G U25A U31A U43C U48C C62U U76A	0.08
A3G U49A A65G	0.37
A3G U43C U51C U54G	0.44
A3G U25C U48C A56G A77G	0.08
A3G U25A A65G U67C U74A	0.17
A3U A20G U49C U54C	0.41
A3G U51G U58C G70C U76A	0.19
A3G U25A G63A	0.35
A3G U25C U43C U80C	0.56
A3U A20G U43C U67C U78C	0.36
A3G U51A A56G A57G	0.4
A3G U26C A35G	1.13
A3U A18G U43A	0.54
A3G U60C U67C G70C	0.26
A3G G10A U26G A56G U67A	0.43
A3U A18G U31A U67A U80C	0.17

Variant	self-cleavage
A3U A18G U66C U69C	0.39
A3G U51A U58C U66C U74A	0.23
A3G G24A A45G U76A	0.1
A3G U25C U41C U80C	0.58
A3G G52C A65G A77C	0.43
A3G G9U U26C U43A U54C U60C	0.08
A3G U41G A64U A65G U80C	0.17
A3G G16A U41A A57G A64G	0.4
A3G G24U C40U	0.12
A3G U31C C62U	0.43
A3U A15G A20U U49C U51C	0.29
A3U A18G A28G C39U U54C	0.53
A3U A13U A18G U31C A35U U66C U69C	0.05
A3G U25C A45G U74A	0.81
A3U A13G A56G A57G U66A U72C	0.33
A3U A18C A35U U66C U67C	0.32
A3G U25C A35G A56G	0.66
A3U A5C C12U C34U A75U	0.14
A3G U69C U76C	0.37
A3G U26C U66C U74C	0.19
A3G U31C A35U C40U U72A	0.06
A3G U26G A57U U58G	0.11
A3G U25A U41C	0.63
A3G U25C U67G C68A U72C	0.11

Variant	self-cleavage
A3G U25C G53U U72C	0.88
A3G U41C A47G	1
A3U A20G U25C G53A U72C A77U	0.21
A3G G10A A21U U66C U72A	0.19
A3G U25A A56C U78C	0.2
A3G U25C A28G U49C C71U	0.35
A3G G24A G55U A56U U58C U74C U80A	0.29
A3G U26G A65G U66C U78C	0.05
A3G U26C C29U	0.48
A3G U31C U72C	0.45
A3U A20G U31A A45U U58C	0.43
A3G G19U G33C U67C U72C	0.09
A3U A15G C17U	0.77
A3G U54C C59U U67C U69A	0
A3G G24A A45G A56U	0.1
A3U A13G U49C U78A	0.46
A3G G33A U60C	0.08
A3U A5G C39G U67A U76C	0.29
A3G U31C A35U	0.5
A3G G53U U58A A64G U76A	0.32
A3G U48C A75G	0.39
A3U A5C U41A U51G	0.76
A3G U26C U41C A57U	0.5
A3G U26C U54A A56C U80A	0.32

Variant	self-cleavage
A3G U41A U67A U80A	0.3
A3G U72G U74C	1.21
A3G U41C A56U C62U	0.36
A3G U54A U72A	1.01
A3G U43G U49A	0.15
A3G G36A U66C A77G	0.06
A3G U41A U43C A56G U72A	0.03
A3G U43G U48C G53A U69A U74G A75U	0.03
A3G G10U U41G A45U U48C U60A U80C	0.06
A3U A18G U43C U60C	0.14
A3G U26A U69C	0.51
A3G U51C A56G U74C U78C	1.2
A3U A18G A28G U48C	0.11
A3U A5U U48C U58A U69G U74C	0.37
A3G U26A G30U U43A A47U U48C U80C	0.09
A3G G22C U26C U60A U66A A77G	0.25
A3G U25C U26A A75U	0.67
A3G U49A U60C U69C	0.14
A3G G53A U66A	0.48
A3G G16A A18G A57G U60A	0.18
A3G U26C A56U	0.23
A3G U25C U60G	0.3
A3U A5U C40U U60A U69A	0.17
A3G U31C U43C A47G A56G U60C	0

Variant	self-cleavage
A3G U49C U54C	0.82
A3G U41C A45G A47G U49A A56G U74A	0.5
A3G G9U G70A	0.1
A3G G19C G22A C40G A77G	0.18
A3G U26C U60C U69A	0.25
A3U A5U A15U A56U A57G	0.52
A3U A20G U66C U78A	0.56
A3G U41A U80C	0.56
A3G U31A C38U G46A A64G U80A	0.13
A3U A5U A28C C29U U58C U67A	0.07
A3G U26C A45G U54G A56G A57G	0.32
A3G U25C C32A A64U U72C	0.14
A3U A5G G24A U26C G61A	0.6
A3U A5C A21U G42U	0.07
A3G U25C U31C U51A C62G U76A	0.13
A3G U25C C38U A56G U72C	0.06
A3G G10C A15U A20G	0.45
A3G U58A U66C	0.28
A3G G22A U25C	0.16
A3U A18U G24U A45G	0.15
A3U A13U U26A U58C U60A U72A	0.28
A3G U41C A57G U60C A75G	0.76
A3G U26G U58A A65G A77U	0.19
A3G U26A A64G	0.93

Variant	self-cleavage
A3G G33A A64U U67A U80C	0.14
A3G U43C A47G U60A U78A U80C	0.3
A3G U60G U76A	0.61
A3G U49C U60C U72C	0.21
A3U A5G G55U	0.73
A3U A20G U26C U58C U80C	0.11
A3G G16U A28G	0.19
A3G G10A A21U U43G U48C C59U	0.29
A3U A15G A47G A64U	0.16
A3G G52C U54A A64U U69C U80C	0.85
A3U A5G C23A G33A U41C A45G	0.2
A3G U31C A64G U76A A77G	0.64
A3G U25C A28G A35G U69C	0.4
A3G U26C G52C	0.75
A3G G33C C62U A64U	0.13
A3G G30A A47G U58C A64G	0.66
A3G G22U U48C A56G U58G	0.34
A3G U58C U67A	0.16
A3G U25C U26C U41A	0.63
A3G U31C A47G G70A	0.24
A3U A5U U43A U54C A56U	0.72
A3G U31A A35G A47G U76C	1.24
A3G G63A U78C	0.55
